From PMC6524963, “Distinct RanBP1 nuclear export and cargo dissociation mechanisms between fungi and animals” (eLife, 2019)

Target: GST-yRanBP1 (S. cerevisiae, UniProt P41920)
Assay: pull-down; GST-yRanBP1, GST-ΔC, GST-NESmut or their mutants on GSH beads; human or yeast CRM1 or mutants in the presence of RanGTP (hRanGTP in Figure 6A) (Figure 6A, D, E)
Settings: both partners purified

B1: hCRM1^Q742T (natural protein)
chain: not shown
notes: CRM1, human, Q742T; source: E. coli, purified (Nickel beads, S200)
  binding result: binds
